Assay in all cases: co-IP; HEK293 cells co-expressing Flag-LRRK2 (R1441G or Y1699C), HA-Rab and GFP-tagged effector, no MLi-2; GFP fusion precipitated with GFP binder Sepharose, 1 h, washed in 50 mM Tris-HCl pH 7.5, 150 mM NaCl; immunoblot
One experiment has as its target T1, RILPL2-GFP R132A (human) (UniProt Q969X0).
T1 sequence: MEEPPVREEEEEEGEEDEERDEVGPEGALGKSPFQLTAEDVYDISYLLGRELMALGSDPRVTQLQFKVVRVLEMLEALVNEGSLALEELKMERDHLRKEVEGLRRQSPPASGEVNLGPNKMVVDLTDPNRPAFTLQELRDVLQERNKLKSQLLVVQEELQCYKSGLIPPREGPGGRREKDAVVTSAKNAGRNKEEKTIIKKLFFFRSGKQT

The chains behind the UniProt entries cited, without tags or fusion partners.
UniProt P61006: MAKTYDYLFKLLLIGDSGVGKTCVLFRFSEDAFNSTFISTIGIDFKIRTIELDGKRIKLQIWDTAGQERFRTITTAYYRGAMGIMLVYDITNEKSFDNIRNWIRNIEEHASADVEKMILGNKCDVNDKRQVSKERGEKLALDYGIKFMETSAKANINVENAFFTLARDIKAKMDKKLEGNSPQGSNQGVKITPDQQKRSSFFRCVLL

A further experiment addresses T2, RILPL2-GFP R139E (human) (UniProt Q969X0).
T2 sequence: T1 sequence with A132R, R139E

For another experiment, the target named is T3, RILPL2-GFP L135A (human) (UniProt Q969X0).
T3 sequence: T1 sequence with A132R, L135A

The next experiment concerns the target T4, RILPL2-GFP P131A (human) (UniProt Q969X0).
T4 sequence: T1 sequence with P131A, A132R

The next experiment addresses T5, JIP3-GFP (full length) (UniProt Q9UPT6).
T5 sequence: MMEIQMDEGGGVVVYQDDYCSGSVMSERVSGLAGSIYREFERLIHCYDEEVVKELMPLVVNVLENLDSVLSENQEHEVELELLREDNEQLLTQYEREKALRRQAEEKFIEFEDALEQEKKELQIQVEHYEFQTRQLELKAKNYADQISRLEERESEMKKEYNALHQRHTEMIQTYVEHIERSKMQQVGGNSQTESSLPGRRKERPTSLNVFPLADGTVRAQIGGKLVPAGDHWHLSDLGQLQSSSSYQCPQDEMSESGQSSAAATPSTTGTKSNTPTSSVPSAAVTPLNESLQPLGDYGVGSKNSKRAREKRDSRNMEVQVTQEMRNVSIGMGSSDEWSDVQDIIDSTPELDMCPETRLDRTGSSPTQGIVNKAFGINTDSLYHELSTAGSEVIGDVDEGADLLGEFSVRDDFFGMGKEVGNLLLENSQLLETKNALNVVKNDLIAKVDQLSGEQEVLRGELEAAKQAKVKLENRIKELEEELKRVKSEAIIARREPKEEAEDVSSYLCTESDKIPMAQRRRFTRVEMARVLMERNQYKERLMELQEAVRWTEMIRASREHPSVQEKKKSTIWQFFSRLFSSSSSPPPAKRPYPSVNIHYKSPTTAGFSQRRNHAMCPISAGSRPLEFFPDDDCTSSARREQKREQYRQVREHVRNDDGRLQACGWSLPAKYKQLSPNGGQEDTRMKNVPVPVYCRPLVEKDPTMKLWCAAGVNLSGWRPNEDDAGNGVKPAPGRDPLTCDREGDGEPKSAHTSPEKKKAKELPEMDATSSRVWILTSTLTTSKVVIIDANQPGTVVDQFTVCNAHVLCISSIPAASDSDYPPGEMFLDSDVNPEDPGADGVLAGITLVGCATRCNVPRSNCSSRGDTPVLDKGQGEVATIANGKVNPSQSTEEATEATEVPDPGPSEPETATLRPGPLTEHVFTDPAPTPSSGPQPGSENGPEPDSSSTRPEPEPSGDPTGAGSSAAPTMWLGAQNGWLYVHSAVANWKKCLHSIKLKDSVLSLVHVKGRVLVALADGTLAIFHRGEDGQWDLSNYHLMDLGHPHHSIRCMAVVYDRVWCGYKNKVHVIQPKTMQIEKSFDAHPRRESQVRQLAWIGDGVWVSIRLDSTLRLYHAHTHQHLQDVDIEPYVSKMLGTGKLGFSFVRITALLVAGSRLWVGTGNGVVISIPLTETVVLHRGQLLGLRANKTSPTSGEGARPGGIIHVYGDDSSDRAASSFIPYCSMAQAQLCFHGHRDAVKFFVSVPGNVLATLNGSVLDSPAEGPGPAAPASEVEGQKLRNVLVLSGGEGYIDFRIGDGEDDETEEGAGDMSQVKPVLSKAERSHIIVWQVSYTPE

Residue numbers refer to the chain shown, from its start. Results are given in words; binding and its absence hold for the method and conditions named. In cells and extracts the contact can be indirect. Some binding calls cover weakened binding; strength is not graded here. Sequences can lack the tags named with a protein.

Consider “HA-Rab8a WT, LRRK2-phosphorylated (pT72) (from UniProt P61006 1-207)”, for which the binding result with RILPL2-GFP R132A (human) is given as “no binding”; in the experiment with RILPL2-GFP R139E (human), “binds”; in the experiment with RILPL2-GFP L135A (human) it was “binds”; in the experiment with RILPL2-GFP P131A (human) it was “binds”; in the experiment with JIP3-GFP (full length) it was “binds weakly”.

The values above are taken from article PMC7139218, “Structural Basis for Rab8a Recruitment of RILPL2 via LRRK2 Phosphorylation of Switch 2” (Structure(London, England:1993), 2020).
